# According to the supplement of paper PMC8728848:
# This is one part of the list.
# Tests used:
# Assay in all cases: glycan array binding signal (z-score within array); higher = stronger binding
# Conditions in all cases: glycan notation: IUPAC condensed, linker removed
# [1] = target: Gal(a1-3)[Gal(a1-4)]Gal(b1-4)GlcNAc
# Procedure, shortened: (§1)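 The binding signal is a Z-score computed within each array and averaged over linkers. Arrays of the same protein sequence at different concentrations or buffers were also averaged together. Data originate from 3228 arrays in the Consortium for Functional Glycomics database, kept only where the protein sequence was available.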
# [2] = target: Gal(a1-4)Gal(b1-3)GlcNAc(b1-2)Man(a1-3)[Gal(a1-4)Gal(b1-3)GlcNAc(b1-2)Man(a1-6)]Man(b1-4)GlcNAc(b1-4)GlcNAc
# Procedure, shortened: as §1
# Gal(a1-4)Gal(b1-4)Glc = target: Gal(a1-4)Gal(b1-4)Glc
# Procedure, shortened: as §1
# Gal(a1-4)Gal(b1-4)GlcNAc = target: Gal(a1-4)Gal(b1-4)GlcNAc
# Procedure, shortened: as §1
# [3] = target: Gal(a1-4)Gal(b1-4)GlcNAc(b1-2)Man(a1-3)[Gal(a1-4)Gal(b1-4)GlcNAc(b1-2)Man(a1-6)]Man(b1-4)GlcNAc(b1-4)GlcNAc
# Procedure, shortened: as §1
# [4] = target: Gal(a1-4)Gal(b1-4)GlcNAc(b1-3)Gal(b1-4)Glc
# Procedure, shortened: as §1
# Gal(a1-4)GlcNAc = target: Gal(a1-4)GlcNAc
# Procedure, shortened: as §1
# Gal(a1-6)Glc = target: Gal(a1-6)Glc
# Procedure, shortened: as §1
# Gal(b1-2)Gal = target: Gal(b1-2)Gal
# Procedure, shortened: as §1
# Gal(b1-3)Gal = target: Gal(b1-3)Gal
# Procedure, shortened: as §1
# Gal(b1-3)Gal(b1-4)GlcNAc = target: Gal(b1-3)Gal(b1-4)GlcNAc
# Procedure, shortened: as §1
# Gal(b1-3)GalNAc = target: Gal(b1-3)GalNAc
# Procedure, shortened: as §1
# [5] = target: Gal(b1-3)GalNAc(a1-3)[Fuc(a1-2)]Gal(b1-4)Glc
# Procedure, shortened: as §1
# [6] = target: Gal(b1-3)GalNAc(a1-3)[Fuc(a1-2)]Gal(b1-4)GlcNAc
# Procedure, shortened: as §1
# Gal(b1-3)GalNAc(b1-3)Gal = target: Gal(b1-3)GalNAc(b1-3)Gal
# Procedure, shortened: as §1
# [7] = target: Gal(b1-3)GalNAc(b1-3)Gal(a1-4)Gal(b1-4)Glc
# Procedure, shortened: as §1
# [8] = target: Gal(b1-3)GalNAc(b1-4)Gal(b1-4)Glc
# Procedure, shortened: as §1
# [9] = target: Gal(b1-3)GalNAc(b1-4)[Neu5Ac(a2-3)]Gal(b1-4)Glc
# Procedure, shortened: as §1
# Gal(b1-3)GlcNAc = target: Gal(b1-3)GlcNAc
# Procedure, shortened: as §1
# [10] = target: Gal(b1-3)GlcNAc(a1-3)Gal(b1-4)GlcNAc
# Procedure, shortened: as §1
# [11] = target: Gal(b1-3)GlcNAc(a1-6)Gal(b1-4)GlcNAc
# Procedure, shortened: as §1
# Gal(b1-3)GlcNAc(b1-2)Man = target: Gal(b1-3)GlcNAc(b1-2)Man
# Procedure, shortened: as §1
# [12] = target: Gal(b1-3)GlcNAc(b1-2)Man(a1-3)[Gal(b1-3)GlcNAc(b1-2)Man(a1-6)]Man(b1-4)GlcNAc(b1-4)GlcNAc
# Procedure, shortened: as §1
# [13] = target: Gal(b1-3)GlcNAc(b1-2)Man(a1-3)[Gal(b1-3)GlcNAc(b1-2)Man(a1-6)]Man(b1-4)GlcNAc(b1-4)[Fuc(a1-6)]GlcNAc
# Procedure, shortened: as §1
# [14] = target: Gal(b1-3)GlcNAc(b1-2)Man(a1-3)[GlcNAc(b1-4)][Gal(b1-3)GlcNAc(b1-2)Man(a1-6)]Man(b1-4)GlcNAc(b1-4)GlcNAc
# Procedure, shortened: as §1
# [15] = target: Gal(b1-3)GlcNAc(b1-2)[Gal(b1-3)GlcNAc(b1-6)]Man(a1-6)[Gal(b1-3)GlcNAc(b1-2)Man(a1-3)]Man(b1-4)GlcNAc(b1-4)GlcNAc
# Procedure, shortened: as §1
# [16] = target: Gal(b1-3)GlcNAc(b1-3)Gal(b1-3)GlcNAc
# Procedure, shortened: as §1
# [17] = target: Gal(b1-3)GlcNAc(b1-3)Gal(b1-4)Glc
# Procedure, shortened: as §1
# [18] = target: Gal(b1-3)GlcNAc(b1-3)Gal(b1-4)GlcNAc
# Procedure, shortened: as §1
# [19] = target: Gal(b1-3)GlcNAc(b1-3)Gal(b1-4)GlcNAc(b1-2)Man(a1-3)[Gal(b1-3)GlcNAc(b1-3)Gal(b1-4)GlcNAc(b1-2)Man(a1-6)]Man(b1-4)GlcNAc(b1-4)GlcNAc
# Procedure, shortened: as §1
# [20] = target: Gal(b1-3)GlcNAc(b1-3)Gal(b1-4)GlcNAc(b1-2)[Gal(b1-3)GlcNAc(b1-3)Gal(b1-4)GlcNAc(b1-6)]Man(a1-6)[Gal(b1-3)GlcNAc(b1-3)Gal(b1-4)GlcNAc(b1-2)Man(a1-3)]Man(b1-4)GlcNAc(b1-4)[Fuc(a1-6)]GlcNAc
# Procedure, shortened: as §1
# [21] = target: Gal(b1-3)GlcNAc(b1-3)Gal(b1-4)GlcNAc(b1-3)Gal(b1-4)GlcNAc(b1-2)[Gal(b1-3)GlcNAc(b1-3)Gal(b1-4)GlcNAc(b1-3)Gal(b1-4)GlcNAc(b1-6)]Man(a1-6)[Gal(b1-3)GlcNAc(b1-3)Gal(b1-4)GlcNAc(b1-3)Gal(b1-4)GlcNAc(b1-2)Man(a1-3)]Man(b1-4)GlcNAc(b1-4)[Fuc(a1-6)]GlcNAc
# Procedure, shortened: as §1
# [22] = target: Gal(b1-3)GlcNAc(b1-3)Gal(b1-4)GlcNAc(b1-6)[Gal(b1-3)GlcNAc(b1-3)]Gal(b1-4)Glc
# Procedure, shortened: as §1
# [23] = target: Gal(b1-3)GlcNAc(b1-3)Gal(b1-4)[Fuc(a1-3)]GlcNAc
# Procedure, shortened: as §1
# [24] = target: Gal(b1-3)GlcNAc(b1-3)Gal(b1-4)[Fuc(a1-3)]GlcNAc(b1-6)[Gal(b1-3)GlcNAc(b1-3)]Gal(b1-4)Glc
# Procedure, shortened: as §1
# [25] = target: Gal(b1-3)GlcNAc(b1-3)GalNAc
# Procedure, shortened: as §1
# [26] = target: Gal(b1-3)GlcNAc(b1-6)Gal(b1-4)GlcNAc
# Procedure, shortened: as §1
# [27] = target: Gal(b1-3)GlcNAc(b1-6)GalNAc
# Procedure, shortened: as §1
binder,measurement,setting,value
GS7807P-bth-537-23-537 (Bacteroides thetaiotaomicron) (protein) NYENINSNPYEAPDLSADGYALGSAMNNLAGCVVSPDVNTAQFTDCLLGGPLGGYFADSNAGFTETISNFNPKDDWSRVFLKSDKIIPTLYSNLTQVKLVSQNTNDPVPYAIAQVIKVAAMHRVTDAFGPIPYSQIGANGEIATPYDSQEVTYNTFFDELNAAIATLNENSNEQLVPTADYIYKGDVKKWIRFANSLKLRLAIRIAYANPVKAQQMAEEAVNPANGGVIESNADNATWNYFETSQNPIYVATRYNQVQTSDHGGVPCLTGGDTHAAADIICYMNGYKDNRREKFFTKSEWAGQDYVGMRRGIVIPELKTTGHKYSGVNIAPTSPLYWMNAAEVAFLRAEGQAVFNFSMGGTAESFYNQGIRLSFEQWGADGVEDYLKDDVNKPTAYTDPAGTNTYQNALSNITIKWNDSADKEEKQERIIVQKWIANWQLGNEAWADFRRTGYPKLIPVKENKSGGVVDSEKGARRMPYPLDEFVSNKANVEYAIANYLHGADNMATDVWWASKK,glycan array binding signal (z-score),[1],0.802
same,glycan array binding signal (z-score),[2],0.331
same,glycan array binding signal (z-score),Gal(a1-4)Gal(b1-4)Glc,-0.375
same,glycan array binding signal (z-score),Gal(a1-4)Gal(b1-4)GlcNAc,-0.204
same,glycan array binding signal (z-score),[3],-0.139
same,glycan array binding signal (z-score),[4],-0.332
same,glycan array binding signal (z-score),Gal(a1-4)GlcNAc,-0.402
same,glycan array binding signal (z-score),Gal(a1-6)Glc,-0.354
same,glycan array binding signal (z-score),Gal(b1-2)Gal,-0.345
same,glycan array binding signal (z-score),Gal(b1-3)Gal,-0.354
same,glycan array binding signal (z-score),Gal(b1-3)Gal(b1-4)GlcNAc,0.851
same,glycan array binding signal (z-score),Gal(b1-3)GalNAc,-0.214
same,glycan array binding signal (z-score),[5],-0.313
same,glycan array binding signal (z-score),[6],-0.075
same,glycan array binding signal (z-score),Gal(b1-3)GalNAc(b1-3)Gal,-0.372
same,glycan array binding signal (z-score),[7],0.168
same,glycan array binding signal (z-score),[8],0.496
same,glycan array binding signal (z-score),[9],-0.335
same,glycan array binding signal (z-score),Gal(b1-3)GlcNAc,-0.21
same,glycan array binding signal (z-score),[10],0.268
same,glycan array binding signal (z-score),[11],-0.173
same,glycan array binding signal (z-score),Gal(b1-3)GlcNAc(b1-2)Man,-0.221
same,glycan array binding signal (z-score),[12],0.031
same,glycan array binding signal (z-score),[13],2.17
same,glycan array binding signal (z-score),[14],-0.124
same,glycan array binding signal (z-score),[15],0.143
same,glycan array binding signal (z-score),[16],-0.027
same,glycan array binding signal (z-score),[17],-0.329
same,glycan array binding signal (z-score),[18],-0.35
same,glycan array binding signal (z-score),[19],-0.327
same,glycan array binding signal (z-score),[20],1.47
same,glycan array binding signal (z-score),[21],0.224
same,glycan array binding signal (z-score),[22],-0.261
same,glycan array binding signal (z-score),[23],-0.051
same,glycan array binding signal (z-score),[24],1.1
same,glycan array binding signal (z-score),[25],1.12
same,glycan array binding signal (z-score),[26],-0.152
same,glycan array binding signal (z-score),[27],1.42
